Test results reported in US5003044A, “Peptide inhibitors of motor neuron attachment to s-laminin” (Washington University, priority 1989, dated 1991).
Not every detail of the peptide structures is certain; ends, links or a residue may be inferred. Residues, ends and D or L forms follow the SMILES beside them. No end group written: not given here.

Tests used:
[1] = test system: adhesion of ciliary neurons to pET-RK36 s-laminin fragment; conditions: for Inhibition of neuronal adhesion to pET-RK36 / s-laminin (in words): concentration not given
[2] = test system: adhesion of ciliary neurons to laminin; test: Inhibition by peptide of ciliary neuron adhesion to laminin; assay type: cell-based, chick
[3] = test system: adhesion of ciliary neurons to concanavalin A; test: Inhibition by peptide of ciliary neuron adhesion to concanavalin A; assay type: cell-based, chick; conditions: peptide 200 μg/ml
ciliary neurons = test: Attachment of ciliary neurons to s-laminin-derived peptides immobilized on nitrocellulose; assay type: cell-based, chick; conditions: peptide applied to nitrocellulose at 10 mg/ml; means ±S.E.
[4] = test system: adhesion of ciliary neurons to poly-lysine; test: Inhibition by peptide of ciliary neuron adhesion to poly-lysine; assay type: cell-based, chick; conditions: peptide 200 μg/ml

CC(C)C[C@H](N)C(=O)N[C@@H](CCCNC(=N)N)C(=O)N[C@@H](CCC(=O)O)C(=O)N[C@@H](CCC(N)=O)C(=O)O [LREQ] (H-LREQ-OH)
Inhibition of neuronal adhesion to pET-RK36 / s-laminin (in words) [1]: active

N=C(N)NCCC[C@H](N)C(=O)N[C@@H](CCC(=O)O)C(=O)O [RE] (H-Arg-Glu-OH)
Inhibition of neuronal adhesion to pET-RK36 / s-laminin (in words) [1]: inactive

AEKQLREQVGD [Peptide M51]
Inhibition of neuronal adhesion to pET-RK36 / s-laminin (in words) [1]: inhibitory

AEKQLREQVGDQYQTVRALAE [Peptide M5]
Inhibition of adhesion to laminin ([2]; peptide 200 μg/ml): ~ 20%
Inhibition of adhesion to laminin ([2]; peptide 500 μg/ml): 25%
Inhibition of adhesion of ciliary neurons to concanavalin A [3]: did not significantly inhibit
Neurons per Field (ciliary neurons): 26.3 ± 3.1
Inhibition of neuronal adhesion to pET-RK36 / s-laminin (in words) [1]: inhibitory activity is demonstrated
Inhibition of adhesion to s-laminin ([1]; peptide 100 μg/ml, FIG. 5d): nearly complete
Inhibition of adhesion of ciliary neurons to pET-RK36 ([1]; peptide 200 μg/ml, FIG. 4b): significantly inhibited adhesion
Inhibition of adhesion of ciliary neurons to poly-lysine [4]: did not significantly inhibit

EQVGDQYQTV
Inhibition of neuronal adhesion to pET-RK36 / s-laminin (in words) [1]: inhibiting activity is not shown

QYQTVRALAE [Peptide M52]
Inhibition of neuronal adhesion to pET-RK36 ([1]; at concentrations up to 200 μg/ml): inactive
Inhibition of neuronal adhesion to pET-RK36 / s-laminin (in words) [1]: inhibiting activity is not shown
